# Test results reported in PubChem BioAssay (Tox21).
# “And” between values parts separate entries of the source, which are not always exact repeats. Equal values may be shown once. The inconclusive results got no clear call from the source; some entries with a clear call stand among them for comparison. Potencies of inconclusive entries are doubtful fits and often do not repeat. The source made the active and inactive calls. The call rests on the fitted dose curve; in most records, active means well fitted inhibition curve with a large enough effect in the signal ratio in the repeat runs (not every such curve was filed as active); inconclusive means weak or mixed curves, or effect the other way; inactive means no such curve, though single readings can be large or run the other way; the % refers to the signal ratio.
# Target: Peroxisome proliferator-activated receptor delta (Homo sapiens) (UniProt Q03181)
# Assay: qHTS assay to identify small molecule antagonists of the peroxisome proliferator-activated receptor delta (PPARd) signaling pathway (AID 743215);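 further: cells stimulated with agonist L165041 at 300 nM final during compound exposure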
# Details: HEK293H PPARd-UAS-bla, beta-lactamase FRET ratio, antagonist, 17 h; at 62 µM (top of the series)
# Excerpt: U.S. Tox21 Program National Center for Advancing Translational Sciences [NCATS] NIH Chemical Genomics Center [NCGC] U.S. Environmental Protection Agency [EPA] National Institutes of Environmental Health Sciences [NIEHS] National Toxicology Program [NTP] U.S. Food and Drug Administration [FDA] Tox21 Assay Overview: The peroxisome proliferator-activated receptors (PPARs) are lipid-activated transcription factors of the nuclear receptor superfamily with three distinct subtypes namely PPAR alpha, PPAR delta (PPARd) and PPAR gamma. All these subtypes heterodimerizes with Retinoid X receptor (RXR) and have different physiological functions. […] To identify the compounds that inhibit PPAR-delta signaling, GeneBLAzer PPAR delta UAS-bla HEK293H cell line (Invitrogen, Carlsbad, CA, USA) containing a beta-lactamase reporter gene under the control of an Upstream Activator Sequence (UAS) was used to screen the Tox21 compound library.
# Tox21 Assay Protocol Summary: PPARd-bla cells were dispensed at 3000 cells/5uL/well in 1536-well black wall/clear bottom plates using a Multidrop Combi (Thermo Fisher Scientific, Waltham, MA) dispenser. After the assay plates were incubated at 37 C and 5% CO2 for 5 h, 23 nL of compounds dissolved in DMSO, positive controls or DMSO only was transferred to the assay plate by a Pintool station (Kalypsys, San Diego, CA), followed by addition of 1ul L165041 (300 nM, final concentration in the wells). The assay plates were incubated at 37 C for 17 h, and then 1 uL of LiveBLAzerTM B/G FRET substrate was added using a Bioraptr Flying Reagent Dispenser (FRD) workstation (Beckman Coulter, Indianapolis, IN, USA). The assay plates were incubated at room temperature for 2 h and fluorescence intensity was measured by an Envision plate reader (PerkinElmer, Shelton, CT).
# On the % scale 0 is the no-effect control and ±100 the full control effect; potency means the concentration at half of the fitted maximal effect; tags describe the fitted curve by direction and shape or compound fluorescence and quenching.
# Sequence of UniProt Q03181 (Q03181 whole entry, looked up): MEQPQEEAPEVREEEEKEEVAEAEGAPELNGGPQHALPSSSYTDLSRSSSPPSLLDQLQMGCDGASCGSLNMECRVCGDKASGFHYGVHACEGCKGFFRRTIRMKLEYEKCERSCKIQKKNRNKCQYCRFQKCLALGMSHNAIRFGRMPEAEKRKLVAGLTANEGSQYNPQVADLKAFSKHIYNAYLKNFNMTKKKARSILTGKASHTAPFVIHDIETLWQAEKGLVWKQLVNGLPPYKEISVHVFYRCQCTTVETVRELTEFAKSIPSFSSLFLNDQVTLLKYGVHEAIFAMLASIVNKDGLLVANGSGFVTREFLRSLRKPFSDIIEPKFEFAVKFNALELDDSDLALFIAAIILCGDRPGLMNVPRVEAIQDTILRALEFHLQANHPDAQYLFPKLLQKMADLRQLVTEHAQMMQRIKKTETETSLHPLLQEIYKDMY
row,SMILES,"ratio activity, negative = inhibition"
1,CC1COC(=O)O1 (stereo not given),inconclusive: -3.96% [fluorescent]
2,CC(=O)C1=C(C)[C@@H]2C[C@@]3(C1)[C@H](C)CC[C@H]3C2(C)C,inactive: 0.298%
3,C=C(C)C(=O)OCC(CC)(COC(=O)C(=C)C)COC(=O)C(=C)C,inactive: -8.37%

# Same assay, conditions: HEK293H PPARd-UAS-bla, beta-lactamase FRET ratio, antagonist, 17 h; at 80.4 µM (top of the series)
row,SMILES,"ratio activity, negative = inhibition"
1,CC1COC(=O)O1 (stereo not given),inconclusive: -35.4% [inhibitor]

# Same assay, conditions: HEK293H PPARd-UAS-bla, beta-lactamase FRET ratio, antagonist, 17 h; ratio activity, negative = inhibition: at 62 µM (top of the series) unless noted
SMILES,"ratio activity, negative = inhibition",Potency
CNS(=O)(=O)c1cc(C(=O)N2CCC(CCN3C4CCC3CC(n3c(C)nc5ccccc53)C4)(c3cccc(F)c3)CC2)c(Cl)cc1F (stereo not given),inconclusive: -16%,–
CC(C)C[C@H](NC(=O)[C@H](CCc1ccccc1)NC(=O)CN1CCOCC1)C(=O)N[C@@H](Cc1ccccc1)C(=O)N[C@@H](CC(C)C)C(=O)[C@@]1(C)CO1,–,inconclusive: 0.75 µM [full curve]
CC1=CCC(C(C)(C)O)CC1 (stereo not given),–,inactive
Cc1ccccc1Br,inactive: 3.27%,–
CC(C=O)Cc1ccc(C(C)(C)C)cc1 (stereo not given),–,"inconclusive: 13.8 µM [rising, partial curve, poor fit]"
O=C(CCCN1CC=C(n2c(=O)[nH]c3ccccc32)CC1)c1ccc(F)cc1,inactive: -3.42%,–
CCOC(=O)[C@@](C)(N)Cc1ccc(O)c(O)c1,inconclusive: 8.89%,–
CCCCC(CC)COC(=O)c1ccccc1C(=O)O (stereo not given),–,"inconclusive: 0.396 µM [fluorescent, partial curve, poor fit]"
COC(=O)[C@H]1[C@H]2C[C@@H]3c4[nH]c5cc(OC)ccc5c4CCN3C[C@H]2C[C@@H](OC(=O)/C=C/c2ccc(O)c(OC)c2)[C@@H]1OC,–,"inconclusive: 23.7 µM [inhibitor, partial curve, poor fit]"
CC1(C)O[C@@H]2C[C@H]3[C@@H]4C[C@H](F)C5=CC(=O)C=C[C@]5(C)[C@@]4(F)[C@@H](O)C[C@]3(C)[C@]2(C(=O)CO)O1,inconclusive: 14.6% and inconclusive: 2.3%,–
CCCOC(=O)c1ccc(O)cc1,–,"inconclusive: 2.75 µM [fluorescent, full curve]"
CCCCN(CCCC)c1ccc(C(=O)c2ccccc2C(=O)O)c(O)c1,–,"inconclusive: 2.78 µM [fluorescent, full curve, poor fit]"
O=C(O)Cc1cn(-c2ccccc2)nc1-c1ccc(Cl)cc1,inactive: -2.21%,–
Cn1cnc2ncnc(N)c21,inactive: -17.3%,–
CCCCC/C=C\C=C\C(=O)OCC,–,inconclusive: 64.2 µM [single point]
CC(=O)C1=C(C)[C@@H]2C[C@@]3(C1)[C@H](C)CC[C@H]3C2(C)C,inconclusive: -10.2% [at 80.4 µM],–
O=c1c(-c2ccc(O)cc2)coc2cc(O)cc(O)c12,inconclusive: -50.1%,"inconclusive: 54 µM [inhibitor, single point] and inconclusive: 34.7 µM [inhibitor, partial curve]"
Brc1cc(Br)c(Oc2cc(Br)c(Br)cc2Br)cc1Br,–,inconclusive: 26.9 µM [single point]

SMILES,"ratio activity, negative = inhibition",Potency
CCN1CCC[C@H]1CNC(=O)c1c(O)c(Cl)cc(Cl)c1OC,inconclusive: 5.32%,–
Cc1c(C2(c3cc(Br)c(O)c(Br)c3C)OS(=O)(=O)c3ccccc32)cc(Br)c(O)c1Br,inconclusive: -3.33% [fluorescent],–
CCCCCCCCS(=O)C(C)Cc1ccc2c(c1)OCO2 (stereo not given),–,inconclusive: 56 µM [inhibitor]
NC1[C@H]2CN(c3nc4c(cc3F)c(=O)c(C(=O)O)cn4-c3ccc(F)cc3F)C[C@@H]12 (stereo not given in full),–,inconclusive: 26.6 µM [activator]
CC(C)CCCCCCCOC(=O)CCCCC(=O)OCCCCCCCC(C)C,–,inactive
CC(C)CC(C)O (stereo not given),inconclusive: -36.4%,–
CN1C(=O)c2ccccc2C1=O,–,"inconclusive: 0.138 µM [fluorescent, full curve, poor fit]"
O=C1OC(=O)c2c(Br)c(Br)c(Br)c(Br)c21,inactive: 1.4%,–
CC/C=C\C/C=C\C/C=C\CCCCCCCC(=O)O,–,inconclusive: 24.5 µM
N[C@@H](Cc1cc(I)c(Oc2cc(I)c(O)c(I)c2)c(I)c1)C(=O)O,inconclusive: 7.17%,–
CNC(=O)c1ccccc1Sc1ccc2c(/C=C/c3ccccn3)n[nH]c2c1,–,"inconclusive: 10.6 µM [rising, full curve]"
O=C(Cn1ccnc1[N+](=O)[O-])NCCO,inactive: -0.513%,–
CC(C)(C)C1CCC(CC2=C(O)c3ccccc3C(=O)C2=O)CC1 (stereo not given),–,"inconclusive: 5.96 µM [rising, full curve]"
COC(=O)c1ccccc1,–,inactive
CC(C)(C)c1cc(C(C)(C)C)c(O)c(C(C)(C)C)c1,–,inactive
CC(=O)OCC(=O)NCCCOc1cccc(CN2CCCCC2)c1,inconclusive: 10.8%,–
C=C(C)C(=O)OCC(CC)(COC(=O)C(=C)C)COC(=O)C(=C)C,inconclusive: 8.73% [at 80.4 µM],–
